# Results taken from the supplement of paper PMC8728848.
# The list shows a part of the results.
# B1: FimA-N1 (Actinomyces oris) (protein)
# chain: MHHHHHHSSGVDLGTENLYFQSNATETPNYGNIKTDATGSLVIHKHLTGGGKDIGTPTGTAQNADDKGPAVEGVVFTAYPITDINLKDPAGWDTISNLSRTGVPDSACANPAAPTLGAHQFGTPKVSPATTKEGLATITEMPVQAYLVCETTTPGDIVQKAKPFVVTIPHPNTAAGADGQWIYDVNVYPKNEAIDVDKTIQAQK
# Columns and labels:
# Assay in all cases: glycan array binding signal (z-score within array); higher = stronger binding
# Settings in all cases: glycan notation: IUPAC condensed, linker removed
# Gal3S(b1-4)Glc = target: Gal3S(b1-4)Glc
# Procedure, shortened: (§1)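 Negative Z-scores can be read as non-binding. The Z-score is calculated within each array and then averaged across arrays of one protein sequence at different concentrations or buffers and across linkers. Arrays, 3228 in all, were curated from the Consortium for Functional Glycomics database and kept only where the protein sequence was available.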
# Gal3S(b1-4)Glc6S = target: Gal3S(b1-4)Glc6S
# Procedure, shortened: as §1
# Gal3S(b1-4)GlcNAc = target: Gal3S(b1-4)GlcNAc
# Procedure, shortened: as §1
# [1] = target: Gal3S(b1-4)[Fuc(a1-3)]Glc6S
# Procedure, shortened: as §1
# [2] = target: Gal3S(b1-4)[Fuc(a1-3)]GlcNAc
# Procedure, shortened: as §1
# [3] = target: Gal3S(b1-4)[Fuc(a1-3)]GlcNAc6S
# Procedure, shortened: as §1
# Gal3S4S(b1-4)GlcNAc = target: Gal3S4S(b1-4)GlcNAc
# Procedure, shortened: as §1
# Gal3S6S(b1-4)GlcNAc = target: Gal3S6S(b1-4)GlcNAc
# Procedure, shortened: as §1
# Gal3S6S(b1-4)GlcNAc6S = target: Gal3S6S(b1-4)GlcNAc6S
# Procedure, shortened: as §1
# Gal4S(b1-4)GlcNAc = target: Gal4S(b1-4)GlcNAc
# Procedure, shortened: as §1
# Gal4S6S(b1-4)GlcNAc = target: Gal4S6S(b1-4)GlcNAc
# Procedure, shortened: as §1
# Gal6P(b1-4)GlcNAc = target: Gal6P(b1-4)GlcNAc
# Procedure, shortened: as §1
# Gal6S(b1-3)GlcNAc = target: Gal6S(b1-3)GlcNAc
# Procedure, shortened: as §1
# Gal6S(b1-3)GlcNAc6S = target: Gal6S(b1-3)GlcNAc6S
# Procedure, shortened: as §1
# Gal6S(b1-4)Glc = target: Gal6S(b1-4)Glc
# Procedure, shortened: as §1
# Gal6S(b1-4)Glc6S = target: Gal6S(b1-4)Glc6S
# Procedure, shortened: as §1
# Gal6S(b1-4)GlcNAc = target: Gal6S(b1-4)GlcNAc
# Procedure, shortened: as §1
# Gal6S(b1-4)GlcNAc6S = target: Gal6S(b1-4)GlcNAc6S
# Procedure, shortened: as §1
# GalNAc(a1-3)Gal = target: GalNAc(a1-3)Gal
# Procedure, shortened: as §1
# GalNAc(a1-3)GalNAc = target: GalNAc(a1-3)GalNAc
# Procedure, shortened: as §1
# [4] = target: GalNAc(a1-3)GalNAc(b1-3)Gal(a1-4)Gal(b1-4)Glc
# Procedure, shortened: as §1
# [5] = target: GalNAc(a1-3)GalNAc(b1-3)Gal(a1-4)Gal(b1-4)GlcNAc
# Procedure, shortened: as §1
# GalNAc(b1-3)Gal = target: GalNAc(b1-3)Gal
# Procedure, shortened: as §1
# [6] = target: GalNAc(b1-3)Gal(a1-4)Gal(b1-4)GlcNAc
# Procedure, shortened: as §1
# [7] = target: GalNAc(b1-3)Gal(a1-4)Gal(b1-4)GlcNAc(b1-3)Gal(b1-4)Glc
# Procedure, shortened: as §1
# [8] = target: GalNAc(b1-3)Gal(a1-6)Gal(b1-4)Glc
# Procedure, shortened: as §1
# GalNAc(b1-3)GalNAc = target: GalNAc(b1-3)GalNAc
# Procedure, shortened: as §1
# GalNAc(b1-3)GlcNAc = target: GalNAc(b1-3)GlcNAc
# Procedure, shortened: as §1
# GalNAc(b1-4)Gal(b1-4)Glc = target: GalNAc(b1-4)Gal(b1-4)Glc
# Procedure, shortened: as §1
# GalNAc(b1-4)GlcNAc = target: GalNAc(b1-4)GlcNAc
# Procedure, shortened: as §1
# [9] = target: GalNAc(b1-4)GlcNAc(b1-2)Man
# Procedure, shortened: as §1
# [10] = target: GalNAc(b1-4)GlcNAc(b1-2)Man(a1-3)[GalNAc(b1-4)GlcNAc(b1-2)Man(a1-6)]Man(b1-4)GlcNAc(b1-4)GlcNAc
# Procedure, shortened: as §1
# [11] = target: GalNAc(b1-4)GlcNAc(b1-3)GalNAc(b1-4)GlcNAc
# Procedure, shortened: as §1
# GalNAc(b1-4)GlcNAc6S = target: GalNAc(b1-4)GlcNAc6S
# Procedure, shortened: as §1
# GalNAc(b1-6)GalNAc = target: GalNAc(b1-6)GalNAc
# Procedure, shortened: as §1
# GalNAc3S(b1-4)GlcNAc = target: GalNAc3S(b1-4)GlcNAc
# Procedure, shortened: as §1
# GalNAc3S(b1-4)GlcNAc3S = target: GalNAc3S(b1-4)GlcNAc3S
# Procedure, shortened: as §1
# [12] = target: GalNAc3S(b1-4)[Fuc(a1-3)]GlcNAc
# Procedure, shortened: as §1
# GalNAc4S6S(b1-4)GlcNAc = target: GalNAc4S6S(b1-4)GlcNAc
# Procedure, shortened: as §1
# GalNAc6S(b1-4)GlcNAc = target: GalNAc6S(b1-4)GlcNAc
# Procedure, shortened: as §1
# Glc(a1-4)Glc = target: Glc(a1-4)Glc
# Procedure, shortened: as §1
# [13] = target: Glc(a1-4)Glc(a1-4)Glc(a1-4)Glc
# Procedure, shortened: as §1
# Glc(a1-6)Glc(a1-6)Glc = target: Glc(a1-6)Glc(a1-6)Glc
# Procedure, shortened: as §1
# [14] = target: Glc(a1-6)Glc(a1-6)Glc(a1-6)Glc
# Procedure, shortened: as §1
# Glc(b1-4)Glc = target: Glc(b1-4)Glc
# Procedure, shortened: as §1
binder,measurement,setting,value
B1,glycan array binding signal (z-score),Gal3S(b1-4)Glc,0.253
same,glycan array binding signal (z-score),Gal3S(b1-4)Glc6S,3.06
same,glycan array binding signal (z-score),Gal3S(b1-4)GlcNAc,-0.163
same,glycan array binding signal (z-score),[1],1.9
same,glycan array binding signal (z-score),[2],0.524
same,glycan array binding signal (z-score),[3],7.57
same,glycan array binding signal (z-score),Gal3S4S(b1-4)GlcNAc,-0.215
same,glycan array binding signal (z-score),Gal3S6S(b1-4)GlcNAc,0.164
same,glycan array binding signal (z-score),Gal3S6S(b1-4)GlcNAc6S,-0.388
same,glycan array binding signal (z-score),Gal4S(b1-4)GlcNAc,-0.299
same,glycan array binding signal (z-score),Gal4S6S(b1-4)GlcNAc,0.072
same,glycan array binding signal (z-score),Gal6P(b1-4)GlcNAc,-0.222
same,glycan array binding signal (z-score),Gal6S(b1-3)GlcNAc,-0.523
same,glycan array binding signal (z-score),Gal6S(b1-3)GlcNAc6S,-0.186
same,glycan array binding signal (z-score),Gal6S(b1-4)Glc,-0.204
same,glycan array binding signal (z-score),Gal6S(b1-4)Glc6S,-0.182
same,glycan array binding signal (z-score),Gal6S(b1-4)GlcNAc,0.396
same,glycan array binding signal (z-score),Gal6S(b1-4)GlcNAc6S,-0.441
same,glycan array binding signal (z-score),GalNAc(a1-3)Gal,-0.249
same,glycan array binding signal (z-score),GalNAc(a1-3)GalNAc,-0.475
same,glycan array binding signal (z-score),[4],-0.284
same,glycan array binding signal (z-score),[5],0.084
same,glycan array binding signal (z-score),GalNAc(b1-3)Gal,-0.253
same,glycan array binding signal (z-score),[6],0.521
same,glycan array binding signal (z-score),[7],-0.399
same,glycan array binding signal (z-score),[8],-0.352
same,glycan array binding signal (z-score),GalNAc(b1-3)GalNAc,-0.3
same,glycan array binding signal (z-score),GalNAc(b1-3)GlcNAc,-0.122
same,glycan array binding signal (z-score),GalNAc(b1-4)Gal(b1-4)Glc,0.901
same,glycan array binding signal (z-score),GalNAc(b1-4)GlcNAc,-0.187
same,glycan array binding signal (z-score),[9],-0.366
same,glycan array binding signal (z-score),[10],0.025
same,glycan array binding signal (z-score),[11],-0.177
same,glycan array binding signal (z-score),GalNAc(b1-4)GlcNAc6S,-0.089
same,glycan array binding signal (z-score),GalNAc(b1-6)GalNAc,-0.173
same,glycan array binding signal (z-score),GalNAc3S(b1-4)GlcNAc,0.036
same,glycan array binding signal (z-score),GalNAc3S(b1-4)GlcNAc3S,-0.16
same,glycan array binding signal (z-score),[12],-0.281
same,glycan array binding signal (z-score),GalNAc4S6S(b1-4)GlcNAc,-0.173
same,glycan array binding signal (z-score),GalNAc6S(b1-4)GlcNAc,0.08
same,glycan array binding signal (z-score),Glc(a1-4)Glc,-0.147
same,glycan array binding signal (z-score),[13],-0.353
same,glycan array binding signal (z-score),Glc(a1-6)Glc(a1-6)Glc,-0.196
same,glycan array binding signal (z-score),[14],-0.176
same,glycan array binding signal (z-score),Glc(b1-4)Glc,-0.344
